Laboratory results reported in PubChem BioAssay AID463173 (ICCB-Longwood Screening Facility, Harvard Medical School, 2010).
Hit rate of the full screen: of about 52,000 compounds, about 4,300 (8.3%) were called active. Cut-off read from the data, not from the text of the source: active = survival mostly below about 52% (no sharp cut-off); inactive = mostly above about 56%. The list shows a part of the results.

test system: DeltatarO mutant; test: growth inhibition of S. aureus wild type versus tarO mutant, primary screen, teichoic acid synthesis inhibitors, RN4220, OD600 (AID 463173); details: OD600, 18 h, active compounds read low, screened at 18.75 µg/mL (by protocol)

| Structure (SMILES) | survival |
| --- | --- |
| Cc1ccc(NC(=O)Cn2c(=O)n(Cc3nc(-c4ccccc4)no3)c(=O)c3ccccc32)c(C)c1 | inactive: 84% |
| COc1ccc(-c2csc(C(C#N)=C3CCCC3)n2)cc1 | inactive: 90% |
| Cc1nn(-c2ccccc2)c(OC(=O)c2ccccc2)c1S(=O)(=O)c1ccccc1 | inactive: 81% |
| Cc1ccc2oc(C(=O)Nc3c(C(=O)Nc4cccc(Cl)c4)oc4ccccc34)cc(=O)c2c1 | inactive: 67% |
| COc1ccc(N2CCN(C(=O)Nc3cn(CC(C)C)c(=O)c4ccccc34)CC2)cc1 | inactive: 83% |
| O=C(Nc1cc(Cl)ccc1Cl)c1ccc2c(c1)N(Cc1cccc(Cl)c1)C(=O)c1ccccc1S2=O (stereo not drawn) | inactive: 94% |
| O=C(NCc1cccs1)c1ccc2c(c1)sc1nc(-c3ccc(F)cc3)cn12 | inactive: 71% |
| CCOC(=O)N1CCC(NC(=O)c2ccc3c(c2)N(Cc2ccccc2C)C(=O)c2ccccc2S3=O)CC1 (stereo not drawn) | inactive: 53% |
| CCOc1ccccc1-c1noc(CSc2nnc(-c3ccccc3)n2-c2ccc(OC)cc2)n1 | inactive: 58% |
| Nc1nc(SCc2cccc3ccccc23)n[nH]1 | inactive: 82% |
| CN(Cc1nc(-c2ccc(Cl)cc2)no1)S(=O)(=O)c1ccccc1 | inactive: 55% |
| CC(C)c1ccc(C2CC(=O)Nc3cc4c(cc32)OCCO4)cc1 (stereo not drawn) | inactive: 59% |
| CCOC(=O)CSc1nc2ccccc2c(=O)n1-c1ccc(C(=O)NCCOC)cc1 | inactive: 96% |
| O=C(Nc1ccccc1C(F)(F)F)N1CCOc2ccc(Cl)cc21 | inactive: 46% |
| Cc1ccc(N2C(=O)CS(=O)(=O)C23C(=O)Nc2ccccc23)cc1C (stereo not drawn) | inactive: 74% |
| CCc1cccc(C)c1NS(=O)(=O)c1ccc2c(c1)CC(C)N2C(=O)C1CC1 (stereo not drawn) | inactive: 88% |
| COc1ccc(-c2noc(CSc3nc4ccccc4[nH]3)n2)cc1OC | inactive: 62% |
| CCN1C(=O)C(O)(c2c[nH]c3ccccc23)c2cc(Br)ccc21 (stereo not drawn) | active: 55% |
| Fc1cccc(CSc2ccc(-c3cccs3)nn2)c1 | inactive: 94% |
| Cc1cccc(Cn2c(=O)n(-c3ccccc3C)c(=O)c3c2c2cc(C)ccc2n3C)c1 | inactive: 95% |
| O=C(C1CCCN(S(=O)(=O)c2cccc3nsnc23)C1)N1CCN(c2cccc(Cl)c2)CC1 (stereo not drawn) | inactive: 54% |
| CCCN1CCc2nc(N3CCN(C)CC3)ncc2C1 | inactive: 91% |

| Structure (SMILES) | survival |
| --- | --- |
| COc1ccc(NC(=O)c2cnc(N3CCCC3)nc2)cc1OC | inactive: 95% |
| CCCC1=Nc2cc(C(=O)N3CCC(C(=O)OCC)CC3)ccc2Sc2ccccc21 | inactive: 79% |
| O=C(OC(C(=O)NC1CCCC1)c1ccccn1)c1cccs1 (stereo not drawn) | inactive: 88% |
| O=C(NCc1cccc(F)c1)c1ccccc1NC(=O)c1nsc2ccccc12 | inactive: 108% |
| Cc1cccc(NC(=O)C2CCCN2S(=O)(=O)c2ccc3c(c2)n(C)c(=O)c(=O)n3C)c1 (stereo not drawn) | inactive: 86% |
| CCC(=O)N1c2ccccc2CC1C(=O)NCc1cc(Br)ccc1OC (stereo not drawn) | inactive: 79% |
| COc1ccccc1C(=O)N(c1ccc(C)cc1)S(=O)(=O)c1ccc(Cl)cc1 | inactive: 74% |
| Cc1ccc2oc3c(c(=O)c2c1)C(c1ccc(O)cc1)N(c1nc(C)c(C)s1)C3=O (stereo not drawn) | inactive: 162% |
| CCC(=O)Nc1nnc(S(=O)(=O)N2c3ccccc3CC2C)s1 (stereo not drawn) | inactive: 92% |
| Cc1csc2nc(COC(=O)c3ccc(NC(=O)C(C)Oc4ccccc4)cc3)cc(=O)n12 (stereo not drawn) | inactive: 134% |
| Cc1ccc(CNc2nc3ccccc3n3cnnc23)cc1 | inactive: 86% |
| Cc1oc(-c2ccc(Cl)cc2)nc1Cn1c(=O)cc(C)c2c(C)nn(-c3ccccc3)c21 | inactive: 94% |
| CC(=O)Nc1cccc(NC(=O)Cn2cnc3c(oc4ccccc43)c2=O)c1 | inactive: 82% |
| Cn1c(=O)n(C)c2cc(N3CCOCC3)c(NS(=O)(=O)c3cccc(C#N)c3)cc21 | inactive: 87% |
| CCNC(=O)c1ccc(C2SCC(=O)N2Cc2ccco2)cc1 (stereo not drawn) | inactive: 104% |
| O=C(CCSCc1cccc(Cl)c1)NCCc1ccc(Cl)cc1 | inactive: 76% |
| O=C(c1ccccc1)N1CCc2cc(CNS(=O)(=O)c3ccc(Cl)s3)ccc21 | inactive: 93% |
| COc1ccc(-n2c(SCC(=O)NCc3ccc(F)cc3)nc3c([nH]c4ccccc43)c2=O)cc1 | inactive: 105% |
| COc1ccc(S(=O)(=O)NCC(c2ccco2)S(=O)(=O)c2cccs2)cc1F (stereo not drawn) | inactive: 102% |
| Cc1ccc(-c2nc3c4c(-c5ccccc5)c(-c5ccccc5)oc4ncn3n2)cc1 | inactive: 56% |
| Cc1ccc(CCNC(=O)C2CCN(S(=O)(=O)c3ccc4c(ccn4C)c3)CC2)cc1 | inactive: 94% |
| CCOc1ccc(NC(=O)c2c(C)oc3nc(C)nc(N4CCOCC4)c23)cc1 | inactive: 93% |

| Structure (SMILES) | survival |
| --- | --- |
| Cc1ccc(CNC(=O)CSc2nc3ccccc3nc2Cc2ccc(C)cc2)cc1 | inactive: 71% |
| Cn1nnc2c(NCc3c(F)cccc3F)ncnc21 | inactive: 80% |
| COc1ccc(N(C(=O)Cn2nnc3ccccc32)C(C(=O)NCc2ccccc2)c2ccc(F)cc2)cc1 (stereo not drawn) | active: 42% |
| COc1ccc(N2CCN(Cc3nc4c(c(=O)[nH]c(=O)n4C)n3Cc3ccccc3F)CC2)cc1 | inactive: 119% |
| COc1ccc(CCNC(=O)c2cc(=O)c3cc(C)c(C)cc3o2)cc1OC | inactive: 85% |
| Cc1nnc(Sc2nc(Sc3nnc(C)s3)nc(N3CCCCC3)n2)s1 | inactive: 74% |
| Cn1c(=O)c2c(nc(SCC(=O)Nc3ccc(F)c(F)c3)n2Cc2ccccc2F)n(C)c1=O | inactive: 111% |
| CCc1ccc(C(=O)CC2(O)C(=O)N(CCc3ccccc3)c3ccc(Cl)cc32)cc1 (stereo not drawn) | active: 19% |
| COc1ccc(CNC(=O)CN2CC(C)CC(C)C2)c(OC)c1 (stereo not drawn) | inactive: 94% |
| Cc1ccc(-n2ncc(C(=O)NCc3ccco3)c2C2CCN(C(=O)OC(C)(C)C)CC2)cc1 | inactive: 94% |
| CNC(=O)C1CCC(Cn2c(=O)c3sccc3n(CC(=O)N3CCC(C)CC3)c2=O)CC1 (stereo not drawn) | inactive: 58% |
| COC(=O)c1cc(S(=O)(=O)NCC2CCN(Cc3cccc(F)c3)CC2)cn1C | inactive: 122% |
| Cc1ccc2nc(Cl)c3cc(C(=O)N4CCCCC4)sc3c2c1 | active: -8% |
| Cc1cc(C)c(Cn2c(=O)n(CCCC(=O)NCc3ccc4c(c3)OCO4)c(=O)c3sccc32)c(C)c1 | inactive: 104% |
| CCOC(=O)c1c(C)oc2nc(C)nc(NCCCN3CCN(c4cc(C)ccc4C)CC3)c12 | inactive: 82% |
| CC(C)c1ccc(Nc2c(-c3ccccn3)nc3ccccn23)cc1 | active: -4% |
| COc1ccc(-c2nc(CSCC(=O)NCc3ccccc3Cl)c(C)o2)cc1OC | active: 46% |
| O=C(NCCc1ccc(Cl)cc1)C1CCN(S(=O)(=O)c2ccc3[nH]ccc3c2)CC1 | inactive: 94% |
| COc1ccc(CCNC(=O)C(=O)NCC(c2cccs2)S(=O)(=O)c2ccc(F)cc2)cc1 (stereo not drawn) | inactive: 90% |
| COc1ccc(-c2noc(CNC(=O)COc3cccc(C)c3C)n2)cc1 | inactive: 51% |
| Cc1cccc(NC(=O)c2cc3c(=O)n(Cc4cccnc4)ccc3nc2C)c1 | active: 0% |
| N#Cc1cc2c(=O)n3ccccc3nc2n(-c2nnc(SCc3ccccc3Cl)s2)c1=O | inactive: 84% |

| Structure (SMILES) | survival |
| --- | --- |
| CCC(Sc1nc2n[nH]c(C)c2c(=N)n1-c1ccccc1Cl)C(=O)N(CC)CC (stereo not drawn) | inactive: 126% |
| O=C(NCCO)c1ccc2nc(-c3ccco3)c(-c3ccco3)nc2c1 | inactive: 87% |
| CC1Cn2c(C(=O)NCc3ccccc3Cl)cc3cccc(c32)S1 (stereo not drawn) | inactive: 96% |
| COc1ccc(NC(=O)CCn2cnc3onc(-c4ccc(F)cc4)c3c2=O)cc1OC | inactive: 119% |
| CCCCCN1C(C(=O)c2ccccc2)=C(OC(=O)CC)c2ccccc2S1(=O)=O | active: -4% |
| COc1cc(OC)c(NC(=O)CCc2c(C)nc3c4c(C)cc(C)nc4nn3c2C)cc1Cl | inactive: 72% |
| CC(NC(=O)c1ccc2c(c1)sc1nc(-c3ccc(F)cc3)cn12)C12CC3CC(CC(C3)C1)C2 (stereo not drawn) | inactive: 96% |
| FC(F)(F)c1cccc(Nc2c3c(nc4ccc(Cl)cc24)CCC3)c1 | active: 9% |
| COc1cccc(/C=C/c2nc(C#N)c(N3CCN(C)CC3)o2)c1 | inactive: 83% |
| COc1cc(NC(=O)C2CCN(S(=O)(=O)c3c(C)noc3/C=C/c3ccccc3F)CC2)cc(OC)c1OC | inactive: 74% |
| Cc1ccc(CCNC(=O)CCCc2nnc3n(C)c(=O)c4sccc4n23)cc1 | inactive: 86% |
| COc1cccc(CSc2nc3n(n2)C(CC(C)C)C(C(=O)Nc2ccccc2C)=C(C)N3)c1 (stereo not drawn) | inactive: 87% |
| COc1ccc(C(=O)Nc2cccc(C(=O)OCc3cc(=O)n4c5c(sc4n3)CCCC5)c2)cc1 | inactive: 64% |
| COc1ccccc1-n1c(=O)n(C)c2c(C(N)=O)nc(-c3cccc(OC)c3OC)nc21 | inactive: 83% |
| CCOC(=O)Cn1c(=O)n(CC2CCCO2)c2nc(-c3cc(OC)ccc3OC)nc(C(N)=O)c21 (stereo not drawn) | inactive: 109% |
| COc1ccc(CCNC(=O)CCc2c(C)nc3cc(-c4cccc(F)c4)nn3c2C)cc1OC | inactive: 132% |
| O=C(NCC(c1cccs1)S(=O)(=O)c1cccs1)c1c(F)cccc1F (stereo not drawn) | inactive: 72% |
| CCCOc1ccc(C(=O)N(Cc2ccco2)Cc2ccco2)cc1 | inactive: 55% |
| CC(C)c1nn2c(=O)cc(COC(=O)c3ccc(NC(=O)c4cccs4)cc3)nc2s1 | inactive: 90% |
| COc1ccc(OC(=O)c2nc(SCc3ccccc3C)ncc2Cl)cc1 | inactive: 66% |
| Cc1ccccc1OCC(=O)Nc1ccccc1OCc1cc(=O)n2ccccc2n1 | inactive: 85% |
| COc1ccc(OC)c(NC(=O)c2c(NCc3ccc(OC)c(OC)c3)sc3c2CCC(C)C3)c1 (stereo not drawn) | inactive: 77% |
